# Laboratory results published in PubChem BioAssay AID1347165 (National Center for Advancing Translational Sciences (NCATS), 2019).
# Hit rate of the full screen: of about 220,000 compounds, about 5,700 (2.6%) were called active. Inconclusive results, whose numbers are uncertain, are shown with a selection of clear calls. Calls follow the shape of the dose curve; as a rule, active = well fitted inhibition curve with a large enough effect; inconclusive = small, poorly fitted or top-dose-only effect; inactive = no such curve, though single readings can be large or run the other way. Potencies of inconclusive entries are doubtful fits and often do not repeat.
# Target: Lysine-specific demethylase 5B (Homo sapiens) (UniProt Q9UGL1)
# Assay: Primary screen for KDM5B Histone Demethylases FDH-coupled qHTS; also: nearly all actives have a fitted effect of over 70% in size
# Conditions: FDH-coupled NADH fluorescence (FDH is formaldehyde dehydrogenase); series mostly up to 57.7 µM
# Method in brief: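 Inhibition is measured as reduced NADH fluorescence generation from FDH coupling to formaldehyde release. Truncated KDM5BΔAP at 200 nM final acts on H3K4me3 peptide (12.5 µM in substrate mix) in pH 7.5 HEPES buffer with Tween-20, 30 min, room temperature.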
# Potency is read from the fitted curve at half-maximal effect; tags tell the direction and shape of the fitted curve.
row,SMILES,Potency
1,CC1Cn2c(C(=O)NCc3ccccc3Cl)cc3cccc(c32)S1 (stereo not drawn),"inconclusive: 35.5 µM [inhibitor, partial curve, poor fit]"
2,Cc1ccsc1C(=O)N1CCC2(CC1)N=C(c1cccc(Br)c1)NO2,"inconclusive: 25.1 µM [inhibitor, partial curve, poor fit]"
3,N#Cc1cc2c(=O)n3ccccc3nc2n(-c2nnc(SCc3ccccc3Cl)s2)c1=O,"inconclusive: 2.82 µM [inhibitor, full curve, poor fit]"
4,Cc1cccc(NC(=O)c2cc3c(=O)n(Cc4cccnc4)ccc3nc2C)c1,"inconclusive: 35.5 µM [inhibitor, single point]"
5,O=C1CCCc2c1cc(C(=O)NC1CCCC1)c(=O)n2-c1ccc(C(F)(F)F)cc1,inactive
6,CNC(=O)[C@@H]1C[C@H](n2cc(CNC(=O)c3ccccc3OC)nn2)CN1,"inconclusive: 39.8 µM [inhibitor, partial curve, poor fit]"
7,NCCC(=O)N1CCC(n2nccc2NC(=O)c2ccc3c(c2)OCO3)CC1,"inconclusive: 12.6 µM [inhibitor, partial curve]"
8,COc1ccccc1CNC(=O)c1ccc2c(c1)N(C)C1CCCCN1C2=O (stereo not drawn),"inconclusive: 22.4 µM [inhibitor, partial curve, poor fit]"
9,CCc1nnc(NC(=O)c2cc(-c3ccc(C)cc3)nc3ccccc23)s1,inactive
10,COc1cccc(C(=O)C(C#N)C(=O)Nc2ccccc2)c1 (stereo not drawn),inactive
11,CC1=NN(c2ccccc2)C(=O)C1C=Nc1ccccc1O (stereo not drawn),"inconclusive: 31.6 µM [inhibitor, partial curve, poor fit]"
12,CC(NC(=O)c1ccc2c(c1)sc1nc(-c3ccc(F)cc3)cn12)C12CC3CC(CC(C3)C1)C2 (stereo not drawn),"inconclusive: 25.1 µM [inhibitor, partial curve, poor fit]"
13,FC(F)(F)c1cccc(Nc2c3c(nc4ccc(Cl)cc24)CCC3)c1,"inconclusive: 35.5 µM [inhibitor, single point]"
14,Cc1cc(=O)oc2cc(OCc3ccccc3)ccc12,"inconclusive: 31.6 µM [inhibitor, single point]"
15,COc1cc(OC)c(NC(=O)CCc2c(C)nc3c4c(C)cc(C)nc4nn3c2C)cc1Cl,"inconclusive: 0.891 µM [inhibitor, partial curve, poor fit]"
16,CCCCCN1C(C(=O)c2ccccc2)=C(OC(=O)CC)c2ccccc2S1(=O)=O,"inconclusive: 15.8 µM [inhibitor, partial curve, poor fit]"
17,COc1cccc(-c2cc(CNC(=O)C3COc4c(cccc4OC)C3)no2)c1 (stereo not drawn),inactive
18,COc1cccc(/C=C/c2nc(C#N)c(N3CCN(C)CC3)o2)c1,"inconclusive: 4.47 µM [inhibitor, full curve, poor fit]"
19,O=C(COC(=O)c1ccc2ccccc2n1)Nc1cccc(Cl)c1,"inconclusive: 1.78 µM [inhibitor, full curve, poor fit]"
20,COc1cc(NC(=O)C2CC(=O)N(c3n[nH]c4cccc(F)c34)C2)cc(OC)c1OC (stereo not drawn),inactive
21,Cc1cccc2c(C(=O)O)cc(-c3ccc(-c4ccccc4)cc3)nc12,"inconclusive: 7.08 µM [inhibitor, full curve, poor fit]"
22,CCOc1ccc(CC(=O)N2CCCC3(C2)Nc2cccnc2NC3=NC2CCCC2)cc1 (stereo not drawn),active: 28.2 µM

row,SMILES,Potency
1,CCN(CC)S(=O)(=O)c1ccc(-n2cnc3cc(C)c(C)cc32)nc1,"inconclusive: 22.4 µM [inhibitor, single point]"
2,CC(C)c1ccc(Nc2c(-c3ccccn3)nc3ccccn23)cc1,"inconclusive: 50.1 µM [inhibitor, single point]"
3,Cc1occc1C(=O)N/N=C/c1ccc(N(C)C)cc1,"inconclusive: 28.2 µM [inhibitor, partial curve, poor fit]"
4,CC(=O)Nc1ccc(NC(=O)c2cc3sc(C)c(CN4CCCCC4)c3[nH]2)cc1,inactive
5,Cc1nc(CN2C[C@H](C(=O)NCCOc3ccccc3)C[C@@H]2c2ccc(F)cc2)cs1,"inconclusive: 28.2 µM [inhibitor, partial curve, poor fit]"
6,CC(NS(=O)(=O)c1ccccc1)C(=O)NC1CCCC1 (stereo not drawn),"inconclusive: 28.2 µM [inhibitor, partial curve, poor fit]"
7,CCC(=O)Nc1nc2c(C)cc(NS(=O)(=O)c3cccc(Cl)c3C)cc2s1,inactive
8,CN(C)c1ccc(C(=O)NC2CCN(c3cc(-c4ccc(Cl)cc4)[nH]n3)CC2)cc1,"inconclusive: 14.1 µM [inhibitor, partial curve, poor fit]"
9,CCC(NC(=O)C(C)c1ccc(-c2ccccc2)c(F)c1)C(=O)O (stereo not drawn),inactive
10,CN(C)c1cc(=O)c2ccnc(N3CCN(c4ccccn4)CC3)c2o1,inactive
11,COc1cccc(-c2cc3c(=O)n(CCNC(=O)c4ccccc4)ccn3n2)c1,inactive
12,N#Cc1ccc(Cn2cnc3ccccc3c2=O)c(F)c1,inactive
13,Cc1cc2c(Nc3cccnc3)nc(-c3c(C)noc3C)cc2[nH]1,"inconclusive: 35.5 µM [inhibitor, single point]"
14,Cc1oc2cc(OCC(=O)Nc3ccc(N4CCOCC4)cc3)ccc2c(=O)c1-c1ccccc1,inactive
15,O=C(c1ccc(C(F)(F)F)cc1)N1CCC([C@@H]2CNC[C@H]2CO)CC1,"inconclusive: 5.01 µM [inhibitor, partial curve, poor fit]"
16,Cc1ccc(C(=O)O/N=C2/CC3CCC2(C)C3(C)CBr)cc1 (stereo not drawn),inactive
17,O=C(Sc1cccc2cccnc12)c1ccccc1Cl,inactive
18,CCNC(=O)N1CCCC1c1noc(CCC(=O)NCC2CCCCC2)n1 (stereo not drawn),inactive
19,O=C1CNC(=S)N1CCc1ccc(O)c(O)c1,"inconclusive: 39.8 µM [inhibitor, partial curve, poor fit]"
20,Cc1ccc(N2C(=S)N[C@H]3[C@@H](O)[C@H](O)C[C@@H](C(=O)NCc4cccs4)[C@H]32)cc1Cl,"inconclusive: 14.1 µM [inhibitor, single point]"
21,Cn1c(=O)c2c(-c3ccc(Cl)cc3)n(CCc3ccccc3)cc2n(C)c1=O,"inconclusive: 14.1 µM [inhibitor, partial curve, poor fit]"
